# Reference: PubChem BioAssay AID1347165 (National Center for Advancing Translational Sciences (NCATS), 2019)
# Screen size: about 220,000 compounds; about 5,700 (2.6%) were called active. The shares of active, inactive and inconclusive entries below differ from those in the screen. Calls come from the whole dose curve; as a rule, active = well fitted inhibition curve with a large enough effect; inconclusive = small, poorly fitted or top-dose-only effect; inactive = no such curve, though single readings can be large or run the other way. Where the call is inconclusive, the potency comes from a doubtful curve fit.
# Target: Lysine-specific demethylase 5B (Homo sapiens) (UniProt Q9UGL1)
# Sequence of UniProt Q9UGL1 (Q9UGL1 whole entry, looked up): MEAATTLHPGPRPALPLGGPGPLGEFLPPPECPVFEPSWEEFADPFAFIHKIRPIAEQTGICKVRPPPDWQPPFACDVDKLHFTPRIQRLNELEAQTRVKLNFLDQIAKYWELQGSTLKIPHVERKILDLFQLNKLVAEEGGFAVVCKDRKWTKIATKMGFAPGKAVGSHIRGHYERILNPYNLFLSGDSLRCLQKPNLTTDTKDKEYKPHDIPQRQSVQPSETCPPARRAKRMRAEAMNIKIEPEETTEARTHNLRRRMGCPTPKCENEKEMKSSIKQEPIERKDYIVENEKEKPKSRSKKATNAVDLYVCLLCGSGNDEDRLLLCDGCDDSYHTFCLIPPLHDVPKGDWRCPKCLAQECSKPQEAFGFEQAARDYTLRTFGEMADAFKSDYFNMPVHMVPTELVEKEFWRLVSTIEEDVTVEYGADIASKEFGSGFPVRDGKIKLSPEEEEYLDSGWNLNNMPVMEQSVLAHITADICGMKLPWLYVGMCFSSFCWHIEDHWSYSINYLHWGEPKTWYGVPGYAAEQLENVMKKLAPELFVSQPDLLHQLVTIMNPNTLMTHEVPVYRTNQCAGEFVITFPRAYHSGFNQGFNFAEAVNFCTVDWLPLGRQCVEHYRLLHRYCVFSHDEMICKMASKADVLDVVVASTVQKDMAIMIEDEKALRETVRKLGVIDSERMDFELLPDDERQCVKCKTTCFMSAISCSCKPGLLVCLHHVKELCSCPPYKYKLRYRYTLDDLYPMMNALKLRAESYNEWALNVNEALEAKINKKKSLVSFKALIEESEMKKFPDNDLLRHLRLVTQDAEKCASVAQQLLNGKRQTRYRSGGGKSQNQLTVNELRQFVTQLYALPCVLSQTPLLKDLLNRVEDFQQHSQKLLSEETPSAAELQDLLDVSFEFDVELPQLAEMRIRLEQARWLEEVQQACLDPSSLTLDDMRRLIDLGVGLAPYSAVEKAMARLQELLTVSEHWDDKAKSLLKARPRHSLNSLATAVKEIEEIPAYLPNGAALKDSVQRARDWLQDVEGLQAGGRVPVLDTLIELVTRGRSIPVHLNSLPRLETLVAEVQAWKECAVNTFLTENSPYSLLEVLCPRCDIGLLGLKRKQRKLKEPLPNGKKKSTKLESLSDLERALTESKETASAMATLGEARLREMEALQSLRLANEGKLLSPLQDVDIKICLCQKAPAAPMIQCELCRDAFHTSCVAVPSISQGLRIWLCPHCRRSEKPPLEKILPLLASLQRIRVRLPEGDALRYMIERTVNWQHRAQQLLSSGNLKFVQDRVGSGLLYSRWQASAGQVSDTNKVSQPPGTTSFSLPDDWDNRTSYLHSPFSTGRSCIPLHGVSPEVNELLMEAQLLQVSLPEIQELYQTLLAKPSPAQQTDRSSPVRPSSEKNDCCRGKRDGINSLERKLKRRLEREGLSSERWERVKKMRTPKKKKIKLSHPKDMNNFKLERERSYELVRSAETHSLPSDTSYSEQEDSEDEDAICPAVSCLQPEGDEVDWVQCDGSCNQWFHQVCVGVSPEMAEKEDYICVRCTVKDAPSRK
# Assay: Primary screen for KDM5B Histone Demethylases FDH-coupled qHTS; note: nearly all actives have a fitted effect of over 70% in size; for activity change, negative = inhibition: 0% is about no effect
# Details: FDH-coupled NADH fluorescence (FDH is formaldehyde dehydrogenase); activity change, negative = inhibition: at 57.7 µM (top of the series) unless noted
# Procedure, shortened: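 Coupled FDH/NAD⁺ fluorescence readout. KDM5BΔAP 200 nM final; compound titration, 10 min RT preincubation; substrate mix 12.5 µM H3K4me3, 25 µM 2-OG, 50 µM Fe(II), 100 µM ascorbate, 0.25 mM NAD⁺, 0.25 U/mL FDH; ΔRFU over 30 min.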
# Potency is the fitted concentration of half-maximal effect; tags give direction and shape of the fitted curve.
Compound,Potency,"activity change, negative = inhibition"
C=C(C)COc1ccc2cc(-c3ccc(OC)cc3OC)c(=O)oc2c1,"inconclusive: 31.6 µM [inhibitor, partial curve, poor fit]",–
COc1cccc(NC(=O)Cc2c[nH]c3ncc(-c4cccnc4OC)cc23)c1,"inconclusive: 31.6 µM [inhibitor, single point]",–
Cc1ccc(CNC(=O)c2c(O)nc3ccccn3c2=O)cc1,"inconclusive: 2.51 µM [inhibitor, partial curve, poor fit]",–
Clc1cccc(Sc2ccc(-c3ccccn3)s2)c1,"inconclusive: 31.6 µM [inhibitor, partial curve, poor fit]",–
Cc1c(C(=O)Nc2cccc(F)c2)oc2c1-c1nn(Cc3c(F)cccc3Cl)cc1CC2,"inconclusive: 15.8 µM [inhibitor, partial curve, poor fit]",–
O=C(CCc1ncc(-c2ccccc2)o1)NCCc1ccccc1,–,inactive: -18.8%
O=C(Nc1nnc(-c2ccccc2)o1)C1CCN(S(=O)(=O)c2cccc(C(F)(F)F)c2)CC1,–,inactive: 12.1%
CC(C)NC(=O)NC[C@H]1O[C@@H](CO)[C@@H](O)[C@H]1N1CCN(C)CC1,"inconclusive: 39.8 µM [inhibitor, partial curve]",–
CN1C(=O)c2ccccc2N2C(=O)CCC12C(=O)Nc1ccccc1F (stereo not drawn),"inconclusive: 28.2 µM [inhibitor, single point]",–
Cc1ccc2[nH]c(C(=O)NC(C)c3ccccc3)cc2c1 (stereo not drawn),"inconclusive: 17.8 µM [inhibitor, partial curve, poor fit]",–
CN(CCCN1CCCCCC1)c1nc(-c2ccncc2)nc2c1cnn2C,"inconclusive: 22.4 µM [inhibitor, single point]",–
COc1cc(C(CC(=O)Nc2ccc(Br)cn2)N2Cc3ccccc3C2=O)cc(OC)c1OC (stereo not drawn),"inconclusive: 50.1 µM [inhibitor, single point]",–
COc1ccc(-c2cc(C(=O)N3CCN(CC(=O)N(C)C)CC3)c3ccccc3n2)cc1,"inconclusive: 35.5 µM [inhibitor, single point]",–
COCCCNCc1ccccc1C,–,inactive: 23.5%
COc1ccc(Nc2cc(C)c3cc(C)ccc3n2)cc1,"inconclusive: 28.2 µM [inhibitor, single point]",–
Cc1cccc(NC(=O)N2C[C@@H](Oc3cccnc3)C[C@@H]2C(=O)N2CCOCC2)c1,–,inactive: -6.82%
CCOCC(=O)N[C@@H]1CN(c2ncccn2)C[C@H]1CO,"inconclusive: 35.5 µM [inhibitor, partial curve, poor fit]",–
CCCCC12CN3CCN(CC(C3)/C1=N\NC(=S)NC)C2,–,inactive: -7.39%
COc1ccc(N2C(=O)C(C)CS2(=O)=O)cc1S(=O)(=O)Nc1ccc(Cl)cc1 (stereo not drawn),"inconclusive: 39.8 µM [inhibitor, single point]",–
COc1cc2c(cc1OC)CN(C(=O)COC(=O)c1cccnc1Nc1ccccc1F)CC2,"inconclusive: 39.8 µM [inhibitor, single point]",–
CC(=O)Nc1ccc(NC(=O)c2cc(-c3ccc(C)c(C)c3O)n[nH]2)cc1,"inconclusive: 25.1 µM [inhibitor, single point]",–
COc1cccc(C(=O)N2CCC(N3C[C@H](O)C[C@H]3C(=O)NCCN3CCCC3)CC2)c1,"inconclusive: 20 µM [inhibitor, partial curve, poor fit]",–

Compound,Potency,"activity change, negative = inhibition"
Cc1ccc(F)cc1S(=O)(=O)N[C@@H]1CN(c2ncccn2)C[C@H]1CN(C)C,active: 25.1 µM,–
Clc1cccc(-c2ccc(CNc3ncncn3)o2)c1,"inconclusive: 14.1 µM [inhibitor, partial curve]",–
N#Cc1cccc(-c2ccnc(N[C@H]3CO[C@H]4[C@@H]3OC[C@@H]4NC(=O)c3ccccc3)n2)c1,"inconclusive: 31.6 µM [inhibitor, single point]",–
Cn1ccc(NC(=O)c2ccc3c(c2)NC(C)(COc2ccccc2)CO3)n1 (stereo not drawn),"inconclusive: 56.2 µM [inhibitor, single point]",–
CCCCCCC(C)NCc1cccc2ccccc12 (stereo not drawn),–,inactive: -11.7%
CCc1c(C)nc2n(c1=O)CN(Cc1cccnc1)CN2c1ccc(F)cc1,"inconclusive: 25.1 µM [inhibitor, partial curve, poor fit]",–
CC(C)N1C(=O)CO[C@H]2CCN(Cc3cccs3)CC[C@@H]21,–,inactive: 3.19% [at 86.2 µM]
CSc1cccc(NC(=O)CCc2ncc(-c3ccccc3)o2)c1,–,inactive: -6.19%
CCOc1ccc(CN2CCN(Cc3nc4ccccc4[nH]3)CC2CCO)cc1 (stereo not drawn),"inconclusive: 20 µM [inhibitor, single point]",–
CCCOC(=O)C(C#N)c1nc2ccccc2nc1Cl (stereo not drawn),–,inactive: 6.74%
CCCn1c(=N)c(C(=O)NCc2ccccc2)cc2c(=O)n3cccc(C)c3nc21,"inconclusive: 5.01 µM [inhibitor, partial curve, poor fit]",–
COc1ccc(Nc2ccc3c(n2)CN(Cc2ccccc2C)C(=O)CO3)cc1,active: 35.5 µM,–
O=C(NCc1cccs1)c1nc(-c2ccsc2)c2ccccn12,active: 39.8 µM,–
Cc1nc2cc(NC(=O)c3cccc(S(=O)(=O)Nc4cccc(Cl)c4)c3)ccc2o1,–,inactive: -8.76%
COc1ccc(C(=O)N2CCN(c3nc4cccnc4o3)CC2)cc1C#N,–,inactive: 12.9%
O=C(c1ccc2cc[nH]c2c1)N1CCC(N2CC(OCC3CC3)C23CCOCC3)CC1 (stereo not drawn),"inconclusive: 31.6 µM [inhibitor, partial curve, poor fit]",–
O=C(NCCc1csc(-c2ccc(C(F)(F)F)cc2)n1)c1ccccc1Cl,"inconclusive: 44.7 µM [inhibitor, single point]",–
Cc1ccc(-n2ncc3c(N4CCN(Cc5ccccc5)CC4)ncnc32)cc1C,"inconclusive: 20 µM [inhibitor, partial curve, poor fit]",–
CC(C)=CCN1Cc2ccccc2NC(=O)C12CCNC2 (stereo not drawn),"inconclusive: 100 µM [inhibitor, partial curve]",–
CCn1nccc1C(=O)N1CCC2(CC1)c1[nH]c3ccc(OC)cc3c1CCN2C,"inconclusive: 25.1 µM [inhibitor, partial curve, poor fit]",–
O=C(NCCc1ccc(Cl)cc1)c1cccc(Nc2ncc(-c3ccc(F)cc3)cn2)c1,–,inactive: -14.2%
